# Hit rate of the full screen: of about 310,000 compounds, about 14,000 (4.5%) showed an effect of 50% or more. The effect is printed as a negative number. Some of the results follow.
# Biological target: human ether-à-go-go-related gene (hERG) potassium channel (human, UniProt Q12809)
# Assay: primary screen, population patch clamp on CHO cells stably expressing hERG
# 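Further: peak tail current of the secondary pulse compared with the same well before compound.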
# Sequence of human ether-à-go-go-related gene (hERG) potassium channel (Q12809 whole entry, looked up): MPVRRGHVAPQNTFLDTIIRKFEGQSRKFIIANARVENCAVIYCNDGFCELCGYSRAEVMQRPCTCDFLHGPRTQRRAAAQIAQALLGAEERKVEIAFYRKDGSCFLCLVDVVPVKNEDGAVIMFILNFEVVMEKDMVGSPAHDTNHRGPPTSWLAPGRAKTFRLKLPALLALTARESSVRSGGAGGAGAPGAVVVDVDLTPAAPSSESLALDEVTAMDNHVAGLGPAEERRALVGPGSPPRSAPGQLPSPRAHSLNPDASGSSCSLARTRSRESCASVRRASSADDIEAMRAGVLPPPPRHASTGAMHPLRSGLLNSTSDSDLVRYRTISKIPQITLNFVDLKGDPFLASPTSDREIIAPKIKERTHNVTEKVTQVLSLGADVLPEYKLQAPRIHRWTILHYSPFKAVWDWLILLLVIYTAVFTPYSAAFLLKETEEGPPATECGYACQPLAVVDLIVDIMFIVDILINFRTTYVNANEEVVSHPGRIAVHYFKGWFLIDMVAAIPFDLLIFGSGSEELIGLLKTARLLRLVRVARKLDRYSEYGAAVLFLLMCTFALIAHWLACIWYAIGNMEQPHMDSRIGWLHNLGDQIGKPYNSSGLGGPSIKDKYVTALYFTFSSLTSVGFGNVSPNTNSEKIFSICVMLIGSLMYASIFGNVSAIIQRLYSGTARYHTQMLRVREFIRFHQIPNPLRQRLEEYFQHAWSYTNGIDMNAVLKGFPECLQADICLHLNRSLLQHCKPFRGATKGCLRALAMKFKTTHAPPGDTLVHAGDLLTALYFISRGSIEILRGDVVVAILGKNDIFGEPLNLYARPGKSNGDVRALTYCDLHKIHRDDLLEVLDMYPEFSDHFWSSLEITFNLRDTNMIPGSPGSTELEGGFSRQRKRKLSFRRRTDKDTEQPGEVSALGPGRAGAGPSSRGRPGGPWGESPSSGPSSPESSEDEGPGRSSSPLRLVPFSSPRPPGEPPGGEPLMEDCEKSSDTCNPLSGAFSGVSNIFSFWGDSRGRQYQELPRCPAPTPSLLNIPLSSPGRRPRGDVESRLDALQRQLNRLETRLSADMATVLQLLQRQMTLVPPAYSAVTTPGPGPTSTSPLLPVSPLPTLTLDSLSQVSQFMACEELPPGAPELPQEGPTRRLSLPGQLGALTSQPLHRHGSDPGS
row,Compound,"hERG current change (%, negative = inhibition) at 10uM"
1,CCCCOCCCNC(=O)c1ccc2c(c1)OCO2,-9.67%
2,CCCCn1c(N)c(N(CCOC)C(=O)COC(=O)C(C)Oc2ccc(Cl)cc2)c(=O)[nH]c1=O (stereo not drawn),11.2%
3,Cc1cc(C)cc(NC(=O)N2CCN(Cc3ccc4c(c3)OCO4)CC2)c1,-59%
4,OCC[C@H]1C[C@H](O)[C@@H](O)[C@]2(OCc3ccccc32)O1,11.9%
5,COc1ccc2c(c1)c(C(C)=O)c(C)n2-c1ccccc1,-8.62%
6,C=CCn1c(SCC(=O)Nc2cc(C)on2)nc2sc(C)c(C)c2c1=O,-0.759%
7,CCOC(=O)C1=C(COC(=O)C2(C)CC2(Cl)Cl)NC(=O)NC1c1ccccc1 (stereo not drawn),-23.4%
8,O=S(=O)(NCc1nc(-c2ccccc2)no1)c1ccc(F)cc1,0.0586%
9,O=C(O)c1ccccc1O,23.8%
10,COC(=O)c1sccc1NC(=S)Nc1cccc(F)c1,10.7%
11,CS(=O)(=O)N(CC(=O)NC1CCCC1)C1CCCCC1,-2.14%
12,CCCC(=O)Nc1cccc(S(=O)(=O)N(C)c2ccccc2)c1,-12.3%
13,Cc1ccc(C)c(C(=O)CN2C(=O)CCC2=O)c1,5.72%
14,O=[N+]([O-])c1ccc(N2CCOCC2)cc1NCCCO,13%
15,CCN1CCN(C(=O)c2cc3c(=O)n(C)c4ccccc4c3n2C)CC1,-9.33%
16,Cc1cc(C)n(CC(C)(O)c2ccccc2)n1 (stereo not drawn),11.5%
17,O=C(Cn1cc(C(=O)c2ccccc2F)c2ccccc21)NCc1ccco1,9.98%
18,CCNc1nc(-c2cc3ccccc3o2)cs1,-2.5%
19,COc1c2c(nc3occc13)C(CCC(C)(C)O)(OC)C(O)CC2 (stereo not drawn),3.68%
20,Cc1nc2ccccc2c(=O)n1-c1ccc(Cl)cc1Cl,-0.324%
21,O=C(Nc1ccc(C(=O)OC2CCCCC2)cc1)c1ccncc1,14.2%
22,O=C(Oc1cccc(Nc2ncnc3ccccc23)c1)c1ccccc1Cl,4.19%

row,Compound,"hERG current change (%, negative = inhibition) at 10uM"
1,CC1CN(C(=O)CCC(=O)NCc2ccc(F)cc2)c2ccccc2S1 (stereo not drawn),-30.3%
2,COC(=O)C1=NN(C(=O)c2ccc(Cl)cc2)C(O)(c2ccccc2)C1 (stereo not drawn),-11.6%
3,Cc1nc2scc(-c3cccs3)c2c(=O)n1N,-7.84%
4,COc1ccc(N2CCN(C(=O)c3ccccc3NC(=O)C3=C(C)OCCS3)CC2)cc1,3.16%
5,CCCCNC(=S)NNC(=O)C1=NN(c2cc(C)ccc2C)C(=O)CC1,17.2%
6,CCCc1cc(C(=O)Nc2cnn(Cc3ccc(F)cc3)c2)no1,5.95%
7,CC1CN(S(=O)(=O)c2ccc(C(=O)N(CCCN(C)C)c3nc4cc5c(cc4s3)OCCO5)cc2)CC(C)O1.Cl (stereo not drawn),-28.8%
8,C=CCOc1cccc(C2C(C(=O)c3ccc(C)o3)=C(O)C(=O)N2Cc2ccncc2)c1 (stereo not drawn),12.5%
9,O=C(CSc1ccccc1)N(c1ccc(Br)cc1)c1nccs1,10.8%
10,COc1cc(CCC(=O)N2CC(C)OC(C)C2)cc(OC)c1OC (stereo not drawn),14.1%
11,Cc1ccc2nc(SCC(=O)c3ccccc3)nc(=O)n2c1,-10.1%
12,CCOC(=O)c1sc2nc(SCC(=O)NCc3ccco3)n(Cc3ccccc3)c(=O)c2c1C,7.28%
13,CCn1c(N2CCN(CC(=O)c3c(C)n(C)c4ccc(OC)cc34)CC2)nc2c1c(=O)[nH]c(=O)n2C,3.19%
14,COc1ccc(C2/C(=C(/O)c3ccc(C)cc3)C(=O)C(=O)N2C)cc1 (stereo not drawn),-2.36%
15,COC(=O)c1ccc(CSc2ccc3nnc(-c4ccc(OC)c(OC)c4)n3n2)o1,-15.1%
16,COc1ccccc1NC(=O)CCc1nc2ccccc2s1,-3.1%
17,CC(C)OC(=O)c1nnc(-c2ccccc2)nc1OC(C)C,-14.6%
18,COc1ccc(S(=O)(=O)Cc2ccc(C(=O)N3CCN(c4ccccn4)CC3)o2)cc1,-27.9%
19,NC(=O)c1ccccc1NC(=O)CSc1cn[nH]n1,13.2%
20,COC(=O)c1onc(-c2ccccc2)c1C(=O)OC,10.3%
21,CN1C(=O)C(=Cc2ccc(N3CCCCCC3)cc2)C(=O)N(C)C1=O,13.1%
22,CCN(CC)CCCC(C)NC(=O)c1c(NC(=O)c2ccccc2)sc2c1CCCC2.O=C(O)C(=O)O (stereo not drawn),-76.9%

row,Compound,"hERG current change (%, negative = inhibition) at 10uM"
1,COc1ccc(NC(=O)c2cc3ccccc3o2)cc1OC,-3.22%
2,N#Cc1nc(-c2ccco2)oc1NCc1ccc(F)cc1,-4.84%
3,CN1CCCN(Cc2ccccc2Br)CC1,9.59%
4,O=C(O)Cn1ccc2cc(S(=O)(=O)N3CCCCCC3)ccc21,21%
5,COc1ccc(S(=O)(=O)CCC(=O)Nc2c(C)cccc2C)cc1,23%
6,COc1ccc([N+](=O)[O-])cc1NC(=O)CS(=O)(=O)c1ccc(C)cc1,4.76%
7,Cc1cc(C(N)=O)c2ccccc2n1,19.4%
8,O=C(Cc1c(Cl)cccc1Cl)NCCc1ccc(Cl)cc1,-39.1%
9,C/C(=N\Nc1ccc2nncn2n1)c1cccs1,16%
10,COc1ccc(NC(=O)c2oc3ccccc3c2NC(=O)c2ccc3c(c2)OCO3)cc1,25%
11,COc1ccc(/C=C/C(=O)NC(=S)NNC(=O)c2cc(OC)c(OC)c(OC)c2)cc1,16.7%
12,COCCNC(=O)C(c1cccs1)N(C(=O)Cn1nnc2ccccc21)c1ccc2c(c1)OCO2 (stereo not drawn),-8.95%
13,CCCCOc1ccc(N2CC(C(=O)NCCc3ccc(OC)c(OC)c3)CC2=O)cc1 (stereo not drawn),3.49%
14,COc1ccc(C(=O)C2CCN(S(=O)(=O)c3ccc4c(c3)OCCO4)CC2)cc1,0.692%
15,CCn1c(SCC(=O)N2CCCC(C)C2)nnc1-c1ccc(S(=O)(=O)N2CCN(C)CC2)cc1 (stereo not drawn),-0.801%
16,CC(=O)c1c(N2CCOCC2)nc(=S)n(-c2ccc([N+](=O)[O-])cc2)c1C,-46.2%
17,C/C(=N\NC(=O)c1ccc(Br)cc1)C1C(=O)c2ccccc2C1=O,17.9%
18,Cc1ccc(S(=O)(=O)N(C)CC(=O)OCC(=O)NC(=O)NC(C)C)cc1,-12.1%
19,Cc1ccc(C(=O)Nc2nnc(S(=O)(=O)N3CCOCC3)s2)cc1,12.2%
20,Cc1cc(=O)[nH]c(SCC(=O)Nc2nnc(SCc3ccccc3)s2)n1,11.4%
21,O=C(O)/C=C\C(=O)Nc1ccccc1C(=O)N1CCN(c2ccc(Cl)cc2)CC1,-0.544%
22,CC(C)=CC(=O)N1CCCc2ccccc21,-2.07%

row,Compound,"hERG current change (%, negative = inhibition) at 10uM"
1,O=C(O)CCCC(=O)OCCCCc1cccs1,-2.23%
2,N=C1/C(=C/c2cccn2CCOc2ccccc2)C(=O)N=C2SC=C(c3ccccc3)N12,0.858%
3,CN(CC(=O)NCc1ccccc1)Cc1cccc(F)c1.O=C(O)C(=O)O,9.59%
4,COc1ccc2c(c1)C(=O)N1[C@H]3c4cc(Br)ccc4OC[C@@H]3[C@H](c3ccccc3)[C@]1(C)C(=O)N2,18.1%
5,COc1ccc(C)cc1NC(=O)c1ccc(S(=O)(=O)N2CCOCC2)cc1,2.48%
6,Cc1cccc(N2C(=NC(=O)c3ccccc3)SC3CS(=O)(=O)CC32)c1 (stereo not drawn),7%
7,CN1CCN(c2ccc(NC(=O)c3ccccc3Br)cc2)CC1,-4.4%
8,O=C(CCN1C(=O)C2CCCCC2C1=O)Nc1ccc(F)c(F)c1F (stereo not drawn),-8.85%
9,COc1ccc(-c2ncccc2OC(=O)C23CC4CC(CC(C4)C2)C3)cc1OC.Cl,-7.51%
10,Cc1ccc(NC(=O)c2ccc(S(=O)(=O)N3CCOCC3)cc2)nc1,-9.23%
11,COc1ccc(Cc2nnc(NC(=O)c3cccc(C)c3)s2)cc1,34.5%
12,Cc1ccc(-c2noc(CN(C(=O)c3ccc4c(c3)OCO4)C(C)C)n2)cc1,11.2%
13,O=C(NC(NC(=S)Nc1ccccc1C(=O)O)C(Cl)(Cl)Cl)c1cccc([N+](=O)[O-])c1 (stereo not drawn),14.3%
14,COc1ccc([C@@H](C)NC(=O)c2ccc3oc(C(C)C)nc3c2)cc1,26.1%
15,CCN(N=O)[C@@H](Cc1ccccc1)CN(N=O)[C@@H](Cc1ccccc1)CN(C)N=O.[Na+],-5.3%
16,COc1ccc(OC)c(/C=N\NC(=O)CC(=O)NCCc2ccccc2)c1,11.9%
17,Cc1nc(N2CCOCC2)c2c(C)c(C(=O)Nc3ccccc3Cl)sc2n1,11.1%
18,COCC(C)NC(=S)Nc1ccccc1[N+](=O)[O-] (stereo not drawn),-3.75%
19,CC(C)c1nc(SCC(=O)c2ccccc2)c2c(=O)n(C)c(=O)n(C)c2n1,6.89%
20,COc1ccc2c(COC(=O)CNC(=O)C34CC5CC(CC(C5)C3)C4)cc(=O)oc2c1,-31.4%
21,CCNC(=O)c1ccc(=O)n(Cc2ccc(Cl)cc2Cl)c1,-18.6%

# Reference: publication PMC4336329 (PLoS ONE, 2015)
